According to patent publication US7517874B2 (priority 2007, dated 2009):

Molecular target: human CB2 receptor (hCB2) (Homo sapiens, UniProt P34972)
Experiment: cell-based
Type: cell-based
Conditions: for +/− HCB2: agonist or inverse agonist at hCB2; for EC50: groups >100 nM-10 μM and >10 μM, cAMP, CHO-K1 hCB2, read-out: EC50 HCB2

Sequence of human CB2 receptor (hCB2) (P34972 whole entry): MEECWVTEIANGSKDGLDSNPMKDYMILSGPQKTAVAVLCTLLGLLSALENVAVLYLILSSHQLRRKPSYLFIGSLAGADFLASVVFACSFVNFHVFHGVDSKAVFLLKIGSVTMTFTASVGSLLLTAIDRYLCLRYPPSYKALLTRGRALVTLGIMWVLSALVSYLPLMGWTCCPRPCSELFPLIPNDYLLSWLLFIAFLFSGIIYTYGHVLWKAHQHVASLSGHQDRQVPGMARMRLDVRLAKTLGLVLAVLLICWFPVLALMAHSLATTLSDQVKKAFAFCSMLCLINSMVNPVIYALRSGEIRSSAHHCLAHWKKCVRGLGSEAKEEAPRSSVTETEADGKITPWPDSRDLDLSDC

Compound | +/− HCB2 | pEC50 | also measured
CNC(=O)[C@@H](NC(=O)c1nc(-c2cccs2)n2c1CNCC2)C(C)(C)C [Compound 16, (S)-N-(3,3-dimethyl-1-(methylamino)-1-oxobutan-2-yl)-3-(thiophen-2-yl)-5,6,7,8-tetrahydroimidazo[1,5-a]pyrazine-1-carboxamide] | + |  | 
CN1CCCn2c(-c3cc(Cl)ccc3F)nc(C(=O)N[C@H](C(=O)N(C)C)C(C)(C)C)c2C1 [Compound 559, (S)-3-(5-chloro-2-fluorophenyl)-N-(1-(dimethylamino)-3,3-dimethyl-1-oxobutan-2-yl)-8-methyl-6,7,8,9-tetrahydro-5H-imidazo[1,5-a][1,4]diazepine-1-carboxamide] | + |  | 
CNC(=O)[C@@H](NC(=O)c1nc(-c2ccsc2)n2c1CN(C)CCC2)C(C)(C)C [Compound 329, (S)-N-(3,3-dimethyl-1-(methylamino)-1-oxobutan-2-yl)-8-methyl-3-(thiophen-3-yl)-6,7,8,9-tetrahydro-5H-imidazo[1,5-a][1,4]diazepine-1-carboxamide] | + |  | 
CNC(=O)[C@H](CC(C)C)NC(=O)c1nc(-c2ccc(F)c(F)c2)n2c1CN(C)CC2 [Compound 278, (S)-3-(3,4-difluorophenyl)-7-methyl-N-(4-methyl-1-(methylamino)-1-oxopentan-2-yl)-5,6,7,8-tetrahydroimidazo[1,5-a]pyrazine-1-carboxamide] | + |  | 
CNC(=O)[C@@H](NC(=O)c1nc(-c2ccccc2)n2c1CN(C(=O)CC(C)(C)C)CC2)C(C)(C)C [Compound 188, (S)-N-(3,3-dimethyl-1-(methylamino)-1-oxobutan-2-yl)-7-(3,3-dimethylbutanoyl)-3-phenyl-5,6,7,8-tetrahydroimidazo[1,5-a]pyrazine-1-carboxamide] |  | < 5.00 | 
CNC(=O)[C@@H](NC(=O)c1nc(/C=C/CC2CCCC2)n2c1CN(C)CCC2)C(C)(C)C [Compound 445, (S,E)-3-(3-cyclopentylprop-1-enyl)-N-(3,3-dimethyl-1-(methylamino)-1-oxobutan-2-yl)-8-methyl-6,7,8,9-tetrahydro-5H-imidazo[1,5-a][1,4]diazepine-1-carboxamide] | − |  | 
CNC(=O)[C@@H](NC(=O)c1nc(-c2ccccc2)n2c1CN(C)CCC2)c1ccccc1 [Compound 543, (S)-8-methyl-N-(2-(methylamino)-2-oxo-1-phenylethyl)-3-phenyl-6,7,8,9-tetrahydro-5H-imidazo[1,5-a][1,4]diazepine-1-carboxamide] | + |  | 
Cc1ccc(-c2nc(C(=O)N[C@H](c3nc(C)no3)C(C)(C)C)c3n2CCCN(C(=O)OC(C)(C)C)C3)c(F)c1 [Compound 518, (S)-tert-butyl 1-(2,2-dimethyl-1-(3-methyl-1,2,4-oxadiazol-5-yl)propylcarbamoyl)-3-(2-fluoro-4-methylphenyl)-6,7-dihydro-5H-imidazo[1,5-a][1,4]diazepine-8(9H)-carboxylate] |  | < 5.00 | 
CNC(=O)[C@@H](NC(=O)c1nc(-c2ccccc2)n2c1CN(C(=O)OC)CC2)C(C)(C)C [Compound 180, (S)-methyl 1-(3,3-dimethyl-1-(methylamino)-1-oxobutan-2-ylcarbamoyl)-3-phenyl-5,6-dihydroimidazo[1,5-a]pyrazine-7(8H)-carboxylate] |  | < 5.00 | 
CC(C)(C)[C@@H](CO)NC(=O)c1nc(-c2ccccc2)n2c1CN(S(=O)(=O)c1ccc(F)cc1)CC2 [Compound 101, (S)-7-(4-fluorophenylsulfonyl)-N-(1-hydroxy-3,3-dimethylbutan-2-yl)-3-phenyl-5,6,7,8-tetrahydroimidazo[1,5-a]pyrazine-1-carboxamide] | − |  | 
C[C@H](NC(=O)c1nc(-c2ccccc2)n2c1CNCC2)C(C)(C)C [Compound 27, (s)-N-(3,3-dimethylbutan-2-yl)-3-phenyl-5,6,7,8-tetrahydroimidazo[1,5-a]pyrazine-1-carboxamide] | + |  | 
CNC(=O)[C@@H](NC(=O)c1nc(-c2cc(C)ccc2F)n2c1CN(C)CCC2)C(C)(C)C [Compound 362, (S)-N-(3,3-dimethyl-1-(methylamino)-1-oxobutan-2-yl)-3-(2-fluoro-5-methylphenyl)-8-methyl-6,7,8,9-tetrahydro-5H-imidazo[1,5-a][1,4]diazepine-1-carboxamide] | + |  | 
CNC(=O)[C@@H](NC(=O)c1nc(C2=CCOCC2)n2c1CN(C)CCC2)C(C)(C)C [Compound 594, (S)-3-(3,6-dihydro-2H-pyran-4-yl)-N-(3,3-dimethyl-1-(methylamino)-1-oxobutan-2-yl)-8-methyl-6,7,8,9-tetrahydro-5H-imidazo[1,5-a][1,4]diazepine-1-carboxamide] | + |  | 
CNC(=O)[C@@H](NC(=O)c1nc(-c2ccsc2)n2c1CN(CC1CC1)CC2)C(C)(C)C [Compound 74, (S)-7-(cyclopropylmethyl)-N-(3,3-dimethyl-1-(methylamino)-1-oxobutan-2-yl)-3-(thiophen-3-yl)-5,6,7,8-tetrahydroimidazo[1,5-a]pyrazine-1-carboxamide] |  | < 5.00 | 
O=C(NC1CCCCC1)c1nc(-c2ccccc2)n2c1CN(CCO)CC2 [Compound 166, N-cyclohexyl-7-(2-hydroxyethyl)-3-phenyl-5,6,7,8-tetrahydroimidazo[1,5-a]pyrazine-1-carboxamide] |  |  | EC50: > 10000 nM
CNC(=O)[C@@H](NC(=O)c1nc(C2=CCCCCC2)n2c1CN(C)CCC2)C(C)(C)C [Compound 457, (S,E)-3-cycloheptenyl-N-(3,3-dimethyl-1-(methylamino)-1-oxobutan-2-yl)-8-methyl-6,7,8,9-tetrahydro-5H-imidazo[1,5-a][1,4]diazepine-1-carboxamide] |  | < 5.00 | 
CNC(=O)[C@@H](NC(=O)c1nc(C2=CCN(C(=O)OC(C)(C)C)CC2)n2c1CN(C)CCC2)C(C)(C)C [Compound 388, (S)-tert-butyl 4-(1-(3,3-dimethyl-1-(methylamino)-1-oxobutan-2-ylcarbamoyl)-8-methyl-6,7,8,9-tetrahydro-5H-imidazo[1,5-a][1,4]diazepin-3-yl)-5,6-dihydropyridine-1(2H)-carboxylate] |  | < 5.00 | 
CNC(=O)[C@@H](NC(=O)c1nc(-c2ccc(OC)cc2F)n2c1CN(C)CCC2)C(C)(C)C [Compound 358] | + |  | 
CCS(=O)(=O)N1CCn2c(-c3ccccc3)nc(C(=O)N[C@@H](C)c3ccccc3)c2C1 [Compound 113, (S)-7-(ethylsulfonyl)-3-phenyl-N-(1-phenylethyl)-5,6,7,8-tetrahydroimidazo[1,5-a]pyrazine-1-carboxamide] |  | < 5.00 | 
CNC(=O)[C@@H](NC(=O)c1nc(-c2cc(Cl)c(C)cc2F)n2c1CN(C)CCC2)C(C)(C)C [Compound 357, (S)-3-(5-chloro-2-fluoro-4-methylphenyl)-N-(3,3-dimethyl-1-(methylamino)-1-oxobutan-2-yl)-8-methyl-6,7,8,9-tetrahydro-5H-imidazo[1,5-a][1,4]diazepine-1-carboxamide] | + |  | 
CNC(=O)[C@@H](NC(=O)c1nc(-c2ccccc2)n2c1CN(C(=O)Nc1ccccc1)CC2)C(C)(C)C [Compound 194, (S)-N1-(3,3-dimethyl-1-(methylamino)-1-oxobutan-2-yl)-N7,3-diphenyl-5,6-dihydroimidazo[1,5-a]pyrazine1,7-(8H)-dicarboxamide] | + |  | 
O=C(NC1CCCCC1)c1nc(-c2ccccc2)n2c1CN(C(=O)C1CC1)CC2 [Compound 136, N-cyclohexyl-7-(cyclopropanecarbonyl)-3-phenyl-5,6,7,8-tetrahydroimidazo[1,5-a]pyrazine-1-carboxamide] |  |  | EC50: > 10000 nM
CNC(=O)[C@@H](NC(=O)c1nc(C2CC2)n2c1CN(C)CCC2)C(C)(C)C [Compound 435, (S)-3-cyclopropyl-N-(3,3-dimethyl-1-(methylamino)-1-oxobutan-2-yl)-8-methyl-6,7,8,9-tetrahydro-5H-imidazo[1,5-a][1,4]diazepine-1-carboxamide] | + |  | 
CNC(=O)[C@@H](NC(=O)c1nc(/C=C/Cc2ccccc2)n2c1CN(C)CCC2)C(C)(C)C [Compound 458, (S,E)-N-(3,3-dimethyl-1-(methylamino)-1-oxobutan-2-yl)-8-methyl-3-(3-phenylprop-1-enyl)-6,7,8,9-tetrahydro-5H-imidazo[1,5-a][1,4]diazepine-1-carboxamide] | − |  | 
CNC(=O)[C@@H](NC(=O)c1nc(-c2ccccc2)n2c1CN(Cc1ccco1)CC2)C(C)(C)C [Compound 64, (S)-N-(3,3-dimethyl-1-(methylamino)-1-oxobutan-2-yl)-7-(furan-2-ylmethyl)-3-phenyl-5,6,7,8-tetrahydroimidazo[1,5-a]pyrazine-1-carboxamide] | + |  | 
CN1CCn2c(-c3ccc(Cl)cc3F)nc(C(=O)N3CCC(C(N)=O)(N4CCOCC4)CC3)c2C1 [Compound 225] |  | < 5.00 | 
CC(C)CCNC(=O)c1nc(-c2ccc(Cl)cc2)n2c1CN(C(=O)c1ccccc1)CC2 [Compound 130, 7-benzoyl-3-(4-chlorophenyl)-N-isopentyl-5,6,7,8-tetrahydroimidazo[1,5-a]pyrazine-1-carboxamide] |  | < 5.00 | 
CNC(=O)[C@H](CC(C)C)NC(=O)c1nc(-c2cc(Cl)ccc2F)n2c1CN(C)CCC2 [Compound 536, (S)-3-(5-chloro-2-fluorophenyl)-8-methyl-N-(4-methyl-1-(methylamino)-1-oxopentan-2-yl)-6,7,8,9-tetrahydro-5H-imidazo[1,5-a][1,4]diazepine-1-carboxamide] | + |  | 
CNC(=O)[C@@H](NC(=O)c1nc(-c2ccc(C(N)=O)cc2)n2c1CN(C)CCC2)C(C)(C)C [Compound 423, (S)-3-(4-carbamoylphenyl)-N-(3,3-dimethyl-1-(methylamino)-1-oxobutan-2-yl)-8-methyl-6,7,8,9-tetrahydro-5H-imidazo[1,5-a][1,4]diazepine-1-carboxamide] |  | < 5.00 | 
C[C@@H](NC(=O)c1nc(-c2ccccc2)n2c1CN(C(=O)C1CCOC1)CC2)C1CCCCC1 (stereo partly drawn) [Compound 139, N-((R)-1-cyclohexylethyl)-3-phenyl-7-(tetrahydrofuran-3-carbonyl)-5,6,7,8-tetrahydroimidazo[1,5-a]pyrazine-1-carboxamide] |  | < 5.00 | 

pEC50: −log10 of the molar value. Where two headings read alike, the source gives them in different places.
